Assay results taken from the supplement of paper PMC12217912.
Some of the results follow. The full chains were built here from the parent and the listed change. Values near 0.05 are background.

B1: TEV protease; numbered along this chain (parent)
chain: MGESLFKGPRDYNPISSSICHLTNESDGHTTSLYGIGFGPFIITNKHLFRRNNGTLVVQSLHGVFKVKDTTTLQQHLVDGRDMIIIRMPKDFPPFPQKLKFREPQREERICLVTTNFQTKSMSSMVSDTSCTFPSGDGIFWKHWIQTKDGQCGSPLVSTRDGFIVGIHSASNFTNTNNYFTSVPKNFMELLTNQEAQQWVSGWRLNADSVLWGGHKVFMVKPEEPFQPVKEATQL

Variants of: B1
Assay: raw area under fraction-flipped curve 0-4 h after induction (AUC4h, not background-subtracted), DNA-recorder readout of cleavage of the substrate (dimensionless); higher = more cleavage of the substrate by the protease variant
Conditions: temperature: 34 °C; time window: 0-4 h after rhamnose induction
Experimental: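 In vivo DNA recorder in E. coli TOP10(DE3) ΔrhaA at 34 °C. Each TEVp single-site mutant (parent TEVp 0) is paired with a single-site variant of the 7-mer TEVs (canonical ENLYFQ|S). The substrate sits between flexible linkers in a Bxb1-sfGFP-TEVs-SsrA fusion, so cleavage stabilises Bxb1 and speeds flipping of a recombination array, read by NGS. The value is the raw area under the fraction-flipped curve over 0-4 h after rhamnose induction (AUC4h), with ≥20 reads per time point. It is not background-subtracted; inactive controls average about 0.047.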
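Also: Bxb1 expression induced with 0.2% (w/v) L-rhamnose at OD600 near 0.5, cultures sampled hourly, flipped fraction per protease–substrate barcode pair counted by paired-end Illumina sequencing.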

Variant | area with substrate ENLYAQS | area with substrate ENLYNQS | area with substrate ENLYRQS | area with substrate ENLYVQS | area with substrate ENLYEQS | area with substrate ENLYGQS | area with substrate ENLYHQS | area with substrate ENLYIQS | area with substrate ENLYSQS | area with substrate ENLYTQS
N186F | 0.07 | 0.0926 | 0.0424 | 0.139 | – | – | – | – | – | –
V78I | 0.0896 | 0.0574 | 0.0631 | – | 0.0759 | 0.0581 | 0.0639 | 0.0454 | 0.068 | 0.0798
V78D | 0.0559 | 0.0533 | 0.05 | – | 0.064 | 0.0578 | 0.0561 | 0.0673 | 0.0526 | –
V78E | 0.0646 | 0.0645 | 0.0595 | – | – | 0.0594 | 0.0604 | – | 0.068 | –
Q75D | 0.0638 | 0.049 | – | – | – | 0.0647 | – | 0.0815 | 0.0396 | –
M125W | 0.0528 | 0.0676 | – | – | 0.048 | 0.0566 | 0.046 | – | – | –
L99K | 0.0513 | – | – | 0.115 | – | – | 0.0545 | – | 0.0447 | –
L99N | 0.0761 | 0.0475 | – | – | – | – | – | 0.122 | – | 0.079
Q198S | 0.0712 | 0.0497 | 0.0602 | – | – | 0.0689 | 0.0741 | – | 0.065 | –
K66Q | 0.0674 | 0.0723 | – | 0.123 | 0.0587 | – | 0.0728 | 0.122 | – | –
K66H | 0.0707 | – | – | – | 0.0717 | 0.0632 | 0.0688 | – | – | 0.083
K66Y | 0.0475 | – | – | 0.163 | – | 0.0776 | 0.0787 | 0.0865 | 0.0568 | –
K66A | 0.0658 | – | 0.0271 | – | – | – | – | – | – | –
C131W | 0.0645 | – | – | – | – | – | – | – | – | –
T176Q | 0.0656 | 0.0436 | 0.0527 | – | 0.0733 | 0.0716 | 0.0694 | – | 0.0666 | –
T119Q | 0.0833 | – | – | – | – | – | – | – | – | –
R87T | 0.0507 | 0.066 | 0.0519 | – | 0.0412 | 0.0643 | – | 0.0656 | 0.0741 | 0.0648
A170I | 0.123 | – | – | – | – | – | – | – | 0.0969 | 0.0556
F95L | 0.0719 | – | – | – | 0.0647 | – | 0.0836 | – | – | –

Same assay, conditions: temperature: 34 °C; time window: 0-4 h after rhamnose induction

Variant | area with substrate ENLYCQS | area with substrate ENLYDQS | area with substrate ENLYKQS | area with substrate ENLYLQS | area with substrate ENLYMQS | area with substrate ENLYPQS | area with substrate ENLYQQS | area with substrate ENLYWQS | area with substrate ENLYYQS
V78D | 0.049 | 0.0583 | 0.036 | 0.0681 | 0.0644 | 0.0591 | 0.0447 | 0.0624 | 0.0473
V78E | 0.0436 | – | 0.0556 | 0.0704 | 0.0764 | 0.0629 | – | 0.0683 | –
Q75D | 0.0674 | 0.0495 | 0.0596 | – | 0.0575 | 0.034 | 0.0631 | – | 0.0556
M125W | – | 0.0653 | 0.0826 | 0.0746 | – | 0.0739 | – | – | –
L99K | – | – | 0.0622 | – | – | 0.0553 | – | 0.0529 | –
L99N | 0.0798 | 0.0601 | – | 0.0722 | 0.0954 | – | – | 0.0723 | –
Q198S | – | 0.0577 | 0.0382 | 0.0942 | – | – | 0.0609 | 0.0649 | –
K66Q | – | – | – | – | 0.1 | 0.0596 | 0.079 | 0.0926 | –
K66H | – | – | 0.124 | 0.0844 | 0.0756 | – | – | 0.107 | –
K66Y | – | 0.0516 | 0.0563 | – | 0.101 | – | 0.0486 | 0.0726 | 0.0716
K66A | – | – | 0.0551 | – | – | 0.0848 | – | 0.0927 | –
C131W | – | 0.0665 | 0.0531 | – | – | 0.0809 | – | 0.0515 | –
T176Q | – | – | 0.0241 | – | 0.0529 | – | 0.0559 | – | 0.0926
R87T | – | – | 0.0647 | – | – | 0.0705 | 0.0589 | 0.0609 | –
A170I | 0.0466 | 0.0304 | – | – | – | 0.0726 | – | – | –
F95L | – | – | – | – | – | 0.0683 | – | – | –
